Source: the supplement of paper PMC3334620
Over roughly 33,000 sequences, “E-score (-0.5 to 0.5)” has its median near -0.021; the highest 2% begin near 0.32. This is one part of the list.

target: T1, Zap1 (UniProt P47043); test: PBM E-score (8-mer binding enrichment) (E-score (-0.5 to 0.5)); higher = stronger / more preferred TF binding; most listed sequences are background and not binding sites; details: protein concentration: 200 nM; construct: GST-full length
T1 sequence: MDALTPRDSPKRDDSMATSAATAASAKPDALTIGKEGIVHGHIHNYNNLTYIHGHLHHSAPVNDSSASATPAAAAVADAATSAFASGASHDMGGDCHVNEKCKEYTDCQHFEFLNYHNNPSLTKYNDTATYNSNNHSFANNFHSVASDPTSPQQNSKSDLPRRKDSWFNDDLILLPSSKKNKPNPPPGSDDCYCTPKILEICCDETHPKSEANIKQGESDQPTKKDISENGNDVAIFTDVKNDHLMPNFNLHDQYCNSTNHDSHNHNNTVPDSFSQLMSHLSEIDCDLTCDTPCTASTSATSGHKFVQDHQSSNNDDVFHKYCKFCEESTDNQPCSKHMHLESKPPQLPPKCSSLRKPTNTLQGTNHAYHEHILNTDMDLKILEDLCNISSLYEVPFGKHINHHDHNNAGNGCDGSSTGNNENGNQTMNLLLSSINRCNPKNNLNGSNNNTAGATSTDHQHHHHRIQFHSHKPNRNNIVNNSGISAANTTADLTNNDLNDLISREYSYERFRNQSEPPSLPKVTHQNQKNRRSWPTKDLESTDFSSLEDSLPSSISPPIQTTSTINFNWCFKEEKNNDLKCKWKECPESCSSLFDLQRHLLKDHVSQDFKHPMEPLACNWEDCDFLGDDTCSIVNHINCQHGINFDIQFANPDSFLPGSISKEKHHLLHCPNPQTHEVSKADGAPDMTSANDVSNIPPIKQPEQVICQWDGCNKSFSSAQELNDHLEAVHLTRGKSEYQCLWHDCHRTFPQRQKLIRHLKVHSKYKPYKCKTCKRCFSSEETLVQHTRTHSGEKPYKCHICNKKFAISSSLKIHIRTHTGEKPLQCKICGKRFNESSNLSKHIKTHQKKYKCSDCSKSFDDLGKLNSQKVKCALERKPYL
Outline: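 E-scores (a modified Wilcoxon-Mann-Whitney statistic) were assigned by the Universal PBM Analysis Suite to every ungapped eight-base word pooled with its reverse complement. The input came from universal all-10-mer Agilent arrays made double-stranded by primer extension and probed with GST-tagged yeast transcription factors at about 100-200 nM. Fluorescent anti-GST detected bound protein, and masliner normalised the scans.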

Row | Sequence | PBM E-score
1 | CCACCCAG | 0.217
2 | TACACAAA | 0.211
3 | GATAGTCA | -0.0807
4 | GTATGGAA | 0.068
5 | GGGGTAGA | 0.014
6 | GCTCTTAA | 0.0298
7 | CCTGTGAA | 0.0649
8 | AATAGCTA | 0.0811
9 | AAAGCATA | -0.0596
10 | ATCTATAA | 0.0901
11 | GGGCTCCA | -0.206
12 | CAGGTACA | 0.101
13 | CATATTCC | -0.15
14 | CCCGGGGC | 0.0993
15 | ATGTACAC | -0.0654
16 | GAACCATC | -0.0493
17 | CACGCGGA | 0.0723
18 | CCCTGACG | 0.0529
19 | GACCAAAA | 0.28
20 | AACTCAGT | -0.0972
21 | GCGGATAA | 0.0975
22 | TCACCTCA | 0.13
23 | TATTGTAA | 0.0918
24 | CGGCTCAA | 0.0563
25 | AGGCCTCC | -0.0325

Row | Sequence | PBM E-score
26 | GGATTCAC | 0.0709
27 | ATTGGCTG | -0.0836
28 | GCTAACCA | 0.235
29 | AGCCCTAG | -0.14
30 | CATTAAAA | 0.225
31 | ATGCTAAT | -0.068
32 | CGTGATGA | -0.0344
33 | GAGCTTAC | -0.115
34 | AAGTCGCT | -0.344
35 | CGCCGGGC | -0.316
36 | GGAGGCCC | -0.0513
37 | AAAATCTC | -0.00181
38 | CTTCGAGC | -0.18
39 | CTGACCAC | 0.153
40 | GCCAAGAC | -0.138
41 | ATTCGCCA | -0.113
42 | AGAGCAGG | -0.114
43 | TATCGAGA | -0.0612
44 | CCCAGGGG | 0.171
45 | ACAAGACT | -0.0293
46 | GGTAGCCA | 0.159
47 | GGTTGCGA | 0.335
48 | CGGGGTTA | 0.474
49 | AAGTTGCG | 0.0515
50 | AATGTTGC | -0.0536

Row | Sequence | PBM E-score
51 | ATAGCAAT | 0.00048
52 | CCCGCTCC | -0.303
53 | CAGGCACG | -0.246
54 | AAGGCCGC | 0.177
55 | AGATTGGC | -0.178
56 | CTTGATTA | 0.14
57 | AAATTCGG | 0.0593
58 | GGTGGACA | -0.146
59 | CTATATCA | 0.0264
60 | ATAGAGTG | 0.0625
61 | ACGTTCGA | -0.259
62 | AAAATGTA | 0.0542
63 | ATGACCAG | 0.222
64 | AGATGAAC | 0.109
65 | TAGGGAAA | -0.195
66 | CTGTGTAA | 0.12
67 | AATCATAT | 0.104
68 | CAGGATAC | -0.0439
69 | CTTTCATA | 0.132
70 | GTGACAAC | 0.252
71 | AAGCCTCC | -0.279
72 | GCTAGAGA | -0.0712
73 | GAGATGAA | -0.101
74 | CCGGCGCC | -0.114
75 | AAAATAGG | 0.054

Row | Sequence | PBM E-score
76 | GAAAGACC | 0.0674
77 | CGACTCTC | -0.257
78 | ACGGTTCG | -0.122
79 | TCAACTAA | 0.2
80 | GACGTTAA | -0.0249
81 | AGAGTAAC | 0.108
82 | ACGATAGG | -0.0988
83 | GTCTGGCA | -0.204
84 | AACTTAGG | 0.176
85 | AGGTGTCA | 0.0475
86 | TGTTCAAA | 0.134
87 | GGGTGCGA | -0.0192
88 | CCATACAA | 0.0852
89 | GTTCAGGA | -0.0383
90 | AAAAATCA | 0.0593
91 | CCGAAAAA | 0.281
92 | GAGACGAC | -0.0111
93 | CAAATTAC | 0.119
94 | CTTAGGAA | 0.0479
95 | ACCCGAAG | 0.197
96 | CACTTTCC | -0.234
97 | GCGTTAGC | -0.00904
98 | TGTGTAAA | 0.118
99 | ACCGTAGT | 0.03
100 | AACAATCA | 0.162

Row | Sequence | PBM E-score
101 | CAATCACA | -0.00441
102 | ATGAATTC | 0.0847
103 | AAACCCAA | 0.312
104 | ATCATAGG | -0.0398
105 | CCAAACTC | 0.0772
106 | AACGCTCG | -0.121
107 | GATGGGGC | -0.213
108 | CGACCTAC | -0.114
109 | ACCCGCGC | 0.277
110 | GGCCTACA | 0.00437
111 | CCGTACAG | 0.00832
112 | CGGGGAAC | -0.0353
113 | AAAATCGC | 0.0335
114 | CTGTTCGC | 0.0386
115 | GTTACTAA | 0.276
116 | GCCCACCC | 0.335
117 | CTGGGGTA | 0.269
118 | CTTAGATA | 0.182
119 | GTCGGGTA | 0.15
120 | GGGTCTAA | 0.0858
121 | ATACCGTA | 0.0745
122 | ATGGCCAT | 0.332
123 | AATCGCCT | -0.178
124 | GTTGTGAA | 0.183
125 | CTATTGTC | -0.146

Row | Sequence | PBM E-score
126 | ACGGGAAT | -0.212
127 | ACCAAGTA | 0.199
128 | GATGGAAA | -0.175
129 | TCCTCTCA | -0.174
130 | ACGGCAGG | -0.214
131 | ATTTACTA | 0.0976
132 | GTATATGA | 0.0557
133 | CCGGATAA | -0.0864
134 | ATTTTTCG | 0.224
135 | GGGTTCAA | 0.129
136 | CTCTCCCA | -0.263
137 | GTTGGAGA | -0.0385
138 | CACCGTTA | -0.0212
139 | AGGCTAAA | 0.0665
140 | AAATATTG | 0.183
141 | GTCTATGA | 0.00047
142 | CCGGCAAG | -0.0357
143 | CGTCTCGA | 0.012
144 | GGCGACAC | -0.0969
145 | AAGGATCC | -0.102
146 | AATGATTA | 0.198
147 | AGTTCATC | -0.208
148 | AAGGATGT | -0.0318
149 | GGCGGGTA | 0.179
150 | CAAAACAA | 0.0663

Row | Sequence | PBM E-score
151 | GACATTCC | -0.23
152 | CCGCCCAC | 0.0267
153 | ACGCACAG | -0.0633
154 | CTTGCACC | 0.108
155 | CACTCATG | -0.0864
156 | AGGCGCTA | -0.18
157 | AAGGGCTA | -0.13
158 | CGAGGATC | -0.0132
159 | CCTGGGAG | -0.0746
160 | GGGTGACC | 0.385
161 | AACGTTAC | 0.111
162 | AACTATAC | 0.147
163 | GCGATGCA | -0.334
164 | GAAGATCA | -0.24
165 | CGAACAGA | 0.0674
166 | ACCAAACC | 0.128
167 | ACCGACAT | -0.0697
168 | GTCGCGAA | -0.0334
169 | CCGGGTTC | 0.247
170 | GAGAGCCA | -0.231
171 | TATCCGAA | 0.126
172 | GCCAGGTA | -0.0589
